Source: the supplement of paper PMC8728848
The list shows a part of the results.

Assays:
Experiment in all cases: glycan array binding signal (z-score within array); higher = stronger binding
Settings in all cases: glycan notation: IUPAC condensed, linker removed
[1] = target: Neu5Ac(a2-6)Gal(b1-4)GlcNAc(b1-6)[Gal(b1-3)GlcNAc(b1-3)]Gal(b1-4)Glc
Summary of the method: (§1)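 The binding signal is a Z-score computed within each array and averaged over linkers. Arrays of the same protein sequence at different concentrations or buffers were also averaged together. Data originate from 3228 arrays in the Consortium for Functional Glycomics database, kept only where the protein sequence was available.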

[2] = target: Neu5Ac(a2-6)Gal(b1-4)GlcNAc(b1-6)[Gal(b1-3)]GalNAc
Summary of the method: as §1

[3] = target: Neu5Ac(a2-6)Gal(b1-4)GlcNAc6S
Summary of the method: as §1

Neu5Ac(a2-6)GalNAc = target: Neu5Ac(a2-6)GalNAc
Summary of the method: as §1

[4] = target: Neu5Ac(a2-6)GalNAc(b1-4)GlcNAc
Summary of the method: as §1

[5] = target: Neu5Ac(a2-6)GalNAc(b1-4)GlcNAc6S
Summary of the method: as §1

[6] = target: Neu5Ac(a2-6)GlcNAc(b1-4)GlcNAc
Summary of the method: as §1

[7] = target: Neu5Ac(a2-6)GlcNAc(b1-4)GlcNAc(b1-4)GlcNAc
Summary of the method: as §1

Neu5Ac(a2-8)Neu5Ac = target: Neu5Ac(a2-8)Neu5Ac
Summary of the method: as §1

[8] = target: Neu5Ac(a2-8)Neu5Ac(a2-3)Gal(b1-3)GalNAc(b1-4)[Neu5Ac(a2-3)]Gal(b1-4)Glc
Summary of the method: as §1

[9] = target: Neu5Ac(a2-8)Neu5Ac(a2-3)Gal(b1-3)GalNAc(b1-4)[Neu5Ac(a2-8)Neu5Ac(a2-3)]Gal(b1-4)Glc
Summary of the method: as §1

[10] = target: Neu5Ac(a2-8)Neu5Ac(a2-3)Gal(b1-4)Glc
Summary of the method: as §1

[11] = target: Neu5Ac(a2-8)Neu5Ac(a2-3)Gal(b1-4)GlcNAc
Summary of the method: as §1

[12] = target: Neu5Ac(a2-8)Neu5Ac(a2-3)[Gal(b1-3)GalNAc(b1-4)]Gal(b1-4)Glc
Summary of the method: as §1

[13] = target: Neu5Ac(a2-8)Neu5Ac(a2-3)[GalNAc(b1-4)]Gal(b1-4)Glc
Summary of the method: as §1

[14] = target: Neu5Ac(a2-8)Neu5Ac(a2-8)Neu5Ac
Summary of the method: as §1

[15] = target: Neu5Ac(a2-8)Neu5Ac(a2-8)Neu5Ac(a2-3)Gal(b1-4)Glc
Summary of the method: as §1

[16] = target: Neu5Ac(a2-8)Neu5Ac(a2-8)Neu5Ac(a2-3)[Gal(b1-3)GalNAc(b1-4)]Gal(b1-4)Glc
Summary of the method: as §1

[17] = target: Neu5Ac(a2-8)Neu5Ac(a2-8)Neu5Ac(a2-3)[GalNAc(b1-4)]Gal(b1-4)Glc
Summary of the method: as §1

[18] = target: Neu5Ac(a2-8)Neu5Ac(a2-8)Neu5Ac(a2-8)Neu5Ac(a2-3)[GalNAc(b1-4)]Gal(b1-4)Glc
Summary of the method: as §1

[19] = target: Neu5Ac(a2-8)Neu5Gc(a2-3)Gal(b1-4)GlcNAc
Summary of the method: as §1

[20] = target: Neu5Ac(b2-6)Gal(b1-4)GlcNAc
Summary of the method: as §1

Neu5Ac(b2-6)GalNAc = target: Neu5Ac(b2-6)GalNAc
Summary of the method: as §1

[21] = target: Neu5Ac9Ac(a2-3)Gal(b1-3)GlcNAc
Summary of the method: as §1

[22] = target: Neu5Ac9Ac(a2-3)Gal(b1-4)GlcNAc
Summary of the method: as §1

[23] = target: Neu5Ac9Ac(a2-6)Gal(b1-4)GlcNAc
Summary of the method: as §1

[24] = target: Neu5Gc(a2-3)Gal(b1-3)GlcNAc
Summary of the method: as §1

[25] = target: Neu5Gc(a2-3)Gal(b1-3)[Fuc(a1-4)]GlcNAc
Summary of the method: as §1

Neu5Gc(a2-3)Gal(b1-4)Glc = target: Neu5Gc(a2-3)Gal(b1-4)Glc
Summary of the method: as §1

[26] = target: Neu5Gc(a2-3)Gal(b1-4)GlcNAc
Summary of the method: as §1

[27] = target: Neu5Gc(a2-3)Gal(b1-4)GlcNAc(b1-3)Gal(b1-4)GlcNAc(b1-2)Man(a1-3)[Neu5Gc(a2-3)Gal(b1-4)GlcNAc(b1-3)Gal(b1-4)GlcNAc(b1-2)Man(a1-6)]Man(b1-4)GlcNAc(b1-4)GlcNAc
Summary of the method: as §1

[28] = target: Neu5Gc(a2-3)Gal(b1-4)[Fuc(a1-3)]GlcNAc
Summary of the method: as §1

[29] = target: Neu5Gc(a2-6)Gal(b1-4)GlcNAc
Summary of the method: as §1

Neu5Gc(a2-6)GalNAc = target: Neu5Gc(a2-6)GalNAc
Summary of the method: as §1

[30] = target: Neu5Gc(a2-8)Neu5Ac(a2-3)Gal(b1-4)GlcNAc
Summary of the method: as §1

[31] = target: Neu5Gc(a2-8)Neu5Gc(a2-3)Gal(b1-4)GlcNAc
Summary of the method: as §1

[32] = target: Neu5Gc(a2-8)Neu5Gc(a2-3)Gal(b1-4)GlcNAc(b1-3)Gal(b1-4)GlcNAc
Summary of the method: as §1

[33] = target: Neu5Gc(a2-8)Neu5Gc(a2-6)Gal(b1-4)GlcNAc
Summary of the method: as §1

B1: CaSRK1 (Capsicum annuum) (protein)
chain: MALCKIFPFAFILLSCSCYLISGQRFDYPTANLSTTWINSVSAPHSIDYTDGSRIRAILLRGTFGPRYACGFYCNGNCESYLFAIFIVQTNSASQITSPAIGFPQVVWSANRNNPVKINSTLQLTAEGDLVLRDADGTLAWSTNTAGKSVAGLSLTDEGNLALFDSKNATVWQSFDHPTDALVPGQKLVPGMKLTASVSRTNWTAGGLFALSAIDNGLVAFVESNPPQKYFEASVGGSNTSGGSNYVKYLNGSLTLFTHSADTTELILISITPASSAQYMKLESNGHLKVYEWTSRGWREVDDLLTGFRGECNYPTVCGRYGICTMGQCSCPTSSSSRTYFRPIDVRRPSLGCSEVTKLTCQNTKKHSPLEVEDVDYFAFKAGISDTDLNTCKRACLEKCSCKAAFFRSGLNSSRTRGDCYLPTEIFSIMNNEKDRTRYDSVAFIKVQV
glycan array binding signal (z-score) [1]: -0.397
glycan array binding signal (z-score) [2]: -0.489
glycan array binding signal (z-score) [3]: 0.264
glycan array binding signal (z-score) (Neu5Ac(a2-6)GalNAc): -0.455
glycan array binding signal (z-score) [4]: -0.346
glycan array binding signal (z-score) [5]: 0.167
glycan array binding signal (z-score) [6]: -0.582
glycan array binding signal (z-score) [7]: -0.548
glycan array binding signal (z-score) (Neu5Ac(a2-8)Neu5Ac): -0.408
glycan array binding signal (z-score) [8]: -0.496
glycan array binding signal (z-score) [9]: 1.3
glycan array binding signal (z-score) [10]: 0.045
glycan array binding signal (z-score) [11]: -0.39
glycan array binding signal (z-score) [12]: -0.25
glycan array binding signal (z-score) [13]: -0.56
glycan array binding signal (z-score) [14]: -0.518
glycan array binding signal (z-score) [15]: -0.573
glycan array binding signal (z-score) [16]: 0.411
glycan array binding signal (z-score) [17]: -0.587
glycan array binding signal (z-score) [18]: -0.413
glycan array binding signal (z-score) [19]: -0.28
glycan array binding signal (z-score) [20]: -0.465
glycan array binding signal (z-score) (Neu5Ac(b2-6)GalNAc): -0.495
glycan array binding signal (z-score) [21]: 1.15
glycan array binding signal (z-score) [22]: -0.344
glycan array binding signal (z-score) [23]: -0.543
glycan array binding signal (z-score) [24]: -0.291
glycan array binding signal (z-score) [25]: -0.319
glycan array binding signal (z-score) (Neu5Gc(a2-3)Gal(b1-4)Glc): 3.18
glycan array binding signal (z-score) [26]: -0.416
glycan array binding signal (z-score) [27]: 0.084
glycan array binding signal (z-score) [28]: 0.49
glycan array binding signal (z-score) [29]: 0.036
glycan array binding signal (z-score) (Neu5Gc(a2-6)GalNAc): -0.311
glycan array binding signal (z-score) [30]: -0.438
glycan array binding signal (z-score) [31]: -0.396
glycan array binding signal (z-score) [32]: -0.123
glycan array binding signal (z-score) [33]: -0.509
